In the supplement of paper PMC7826260:
This is one part of the list. Each Rep nickase domain was tested in vitro on the same pool of single strands at 3 µM enzyme and 37 °C for 1 h; the strands have 90 letters, of which the middle is given. Values are log2 of uncut reads against the no-enzyme pool; uncut sequences lie near 0, cut ones below; no hit call is given. The scaling is to total reads, so uncut sequences can rise above 0 when many others are cut.

Columns and labels:
Experiment in all cases: uncleaved DNA left, log2 of reads against the no-enzyme library (log2 ratio); higher = less cleavage (more negative = more Rep cleavage of the k-mer); sequences stand for … in CTCGTCCG…ACCGGAGA
[1] = tested on: T1, Rep nickase domain of Muscovy duck circovirus
T1 sequence (protein, residues 1-111, tag omitted): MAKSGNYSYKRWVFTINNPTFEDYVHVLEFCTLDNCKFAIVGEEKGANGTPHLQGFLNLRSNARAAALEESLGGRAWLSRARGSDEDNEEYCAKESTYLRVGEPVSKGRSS
Protocol: (§1)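 A pool of 90-nt single-stranded DNAs with seven random bases just before the constant AC of the nick site (name = the seven bases) was cut by 3 µM recombinant His6-SUMO-tagged Rep nickase domain (300 nM DNA, 50 mM HEPES pH 8.0, 50 mM NaCl, 1 mM MnCl2, 1 h, 37 °C, three replicates). Uncut DNA was amplified and sequenced.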

[2] = tested on: T2, Rep nickase domain of banana bunchy top virus
T2 sequence (protein, residues 1-94, tag omitted): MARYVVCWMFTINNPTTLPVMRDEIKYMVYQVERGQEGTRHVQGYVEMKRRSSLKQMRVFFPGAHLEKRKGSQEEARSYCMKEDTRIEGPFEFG
Protocol: as §1

[3] = tested on: T3, Rep nickase domain of cabbage leaf curl virus
T3 sequence (protein, residues 1-116, tag omitted): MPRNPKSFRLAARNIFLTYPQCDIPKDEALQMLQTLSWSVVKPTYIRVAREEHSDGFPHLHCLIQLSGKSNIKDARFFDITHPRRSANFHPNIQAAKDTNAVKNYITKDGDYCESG
Protocol: as §1

[4] = tested on: T4, Rep nickase domain of chickpea chlorotic dwarf virus
T4 sequence (protein, residues 1-124, tag omitted): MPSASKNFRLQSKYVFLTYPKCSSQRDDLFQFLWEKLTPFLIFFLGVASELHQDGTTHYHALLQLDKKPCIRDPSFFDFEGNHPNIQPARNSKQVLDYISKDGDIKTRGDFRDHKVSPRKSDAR
Protocol: as §1

[5] = tested on: T5, Rep nickase domain of faba bean necrotic yellows virus
T5 sequence (protein, residues 1-98, tag omitted): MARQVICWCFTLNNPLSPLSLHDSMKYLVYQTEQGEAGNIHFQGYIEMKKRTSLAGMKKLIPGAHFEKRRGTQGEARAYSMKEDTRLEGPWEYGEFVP
Protocol: as §1

[6] = tested on: T6, Rep nickase domain of maize striate mosaic virus
T6 sequence (protein, residues 1-117, tag omitted): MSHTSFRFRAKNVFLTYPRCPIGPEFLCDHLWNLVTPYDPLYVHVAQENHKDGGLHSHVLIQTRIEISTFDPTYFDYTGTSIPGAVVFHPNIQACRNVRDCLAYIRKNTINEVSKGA
Protocol: as §1

[7] = tested on: T7, Rep nickase domain of porcine circovirus 2
T7 sequence (protein, residues 2-116, tag omitted): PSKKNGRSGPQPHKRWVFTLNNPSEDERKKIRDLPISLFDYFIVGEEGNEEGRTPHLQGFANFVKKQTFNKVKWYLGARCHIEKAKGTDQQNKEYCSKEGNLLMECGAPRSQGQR
Protocol: as §1

[8] = tested on: T8, Rep nickase domain of tomato yellow leaf curl virus
T8 sequence (protein, residues 1-136, tag omitted): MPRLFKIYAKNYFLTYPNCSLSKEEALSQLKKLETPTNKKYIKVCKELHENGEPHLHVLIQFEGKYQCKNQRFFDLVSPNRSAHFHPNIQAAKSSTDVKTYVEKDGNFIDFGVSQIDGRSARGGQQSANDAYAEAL
Protocol: as §1

[9] = tested on: T9, Rep nickase domain of wheat dwarf virus
T9 sequence (protein, residues 1-137, tag omitted): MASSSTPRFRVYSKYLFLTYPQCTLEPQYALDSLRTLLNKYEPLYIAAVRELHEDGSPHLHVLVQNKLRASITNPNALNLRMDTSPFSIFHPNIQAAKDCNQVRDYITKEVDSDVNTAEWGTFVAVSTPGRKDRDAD
Protocol: as §1

| Sequence | uncleaved DNA left (log2) [1] | uncleaved DNA left (log2) [2] | uncleaved DNA left (log2) [3] | uncleaved DNA left (log2) [4] | uncleaved DNA left (log2) [5] | uncleaved DNA left (log2) [6] | uncleaved DNA left (log2) [7] | uncleaved DNA left (log2) [8] | uncleaved DNA left (log2) [9] |
| --- | --- | --- | --- | --- | --- | --- | --- | --- | --- |
| ATTTAAG | -0.0301 | 0.0178 | -0.814 | -0.246 | 0.104 | -1.18 | 0.152 | 0.0815 | 0.0181 |
| CAGAACT | -0.146 | -1.63 | -0.426 | -2.99 | -0.518 | -0.518 | -3.45 | -0.215 | -0.138 |
| GTATACA | -0.0532 | 0.153 | 0.294 | 0.607 | 0.0079 | 1.66 | 0.0987 | 0.123 | 0.0962 |
| CGGTCCC | 0.103 | 0.0896 | 0.313 | 0.591 | 0.0121 | 0.729 | 0.0826 | 0.147 | 0.113 |
| TACCCTA | -0.157 | -0.125 | -0.189 | -2.76 | -0.196 | -0.397 | -1.35 | -0.0121 | -0.144 |
| GGCGCGA | 0.227 | 0.137 | 0.0729 | 0.3 | 0.156 | 0.158 | 0.234 | 0.0966 | -0.0114 |
| TACATAG | -0.0366 | -0.123 | -0.816 | -0.625 | 0.0402 | -1.24 | 0.0542 | 0.066 | -0.156 |
| GTAGAAA | 0.131 | 0.163 | 0.449 | 0.992 | 0.0239 | 1.75 | 0.205 | 0.21 | 0.225 |
| GACGTCT | -0.0135 | -0.0679 | 0.0688 | -1.6 | -0.0469 | 0.433 | -0.251 | -0.0782 | -0.0576 |
| ACTGTAA | -0.155 | -0.041 | -0.138 | 0.103 | -0.0647 | 0.0977 | 0.0393 | -0.0327 | 0.0646 |
| ACAATGA | -0.0127 | 0.0727 | -0.264 | -0.134 | -0.0264 | -0.885 | 0.0753 | -0.0565 | -0.0993 |
| ACCTCTA | -0.0234 | -0.0869 | -0.312 | -1.27 | -0.000201 | -0.607 | -0.0363 | -0.144 | 0.00933 |
| CTAAAAC | 0.0776 | 0.0436 | -0.0251 | -1.03 | 0.0476 | -0.839 | 0.16 | -0.0404 | 0.0783 |
| ATCGTCA | -0.00012 | 0.0741 | -0.0118 | -1.06 | -0.00131 | -0.602 | 0.0241 | 0.0551 | -0.014 |
| TCAATCG | 0.0563 | 0.00201 | -0.841 | -0.693 | 0.0175 | -1.22 | 0.18 | 0.114 | 0.0427 |
| AGGCACA | -0.0201 | 0.176 | 0.304 | 0.476 | 0.07 | 1 | 0.0933 | 0.0877 | 0.141 |
| ATGCTAG | -0.0527 | -0.0148 | -0.643 | -0.52 | -0.026 | -1.13 | 0.204 | 0.0165 | -0.0764 |
| CTAGCGC | -0.0149 | -0.113 | -0.927 | -0.676 | -0.105 | -1.07 | 0.0261 | -0.0179 | -0.196 |
| CAAATTG | 0.187 | 0.168 | -0.497 | -0.757 | 0.162 | -1.04 | 0.308 | 0.227 | 0.098 |
| GTACAGG | -0.0827 | -0.0667 | 0.417 | 1.15 | 0.0236 | 1.49 | 0.146 | 0.00687 | 0.0483 |
| ATGTATC | -0.118 | -0.0511 | 0.0256 | -0.122 | -0.0989 | -0.566 | -0.221 | -0.0399 | -0.0832 |
| GAGCGGT | 0.0868 | -0.0614 | 0.0969 | 0.433 | -0.0708 | 0.754 | -0.397 | 0.04 | 0.0178 |
| ATGGATC | -0.0884 | -0.0407 | 0.161 | 1.17 | 0.0656 | 1.19 | 0.261 | -0.0751 | -0.0167 |
| GACCCCG | -0.197 | -0.198 | -0.75 | -0.837 | -0.0806 | -0.822 | -0.41 | -0.201 | -0.165 |
| CCGTGCG | -0.0163 | -0.0297 | -0.533 | 0.707 | -0.0292 | -0.0244 | 0.115 | -0.157 | -0.146 |
| AATGTCC | -0.0274 | 0.0556 | 0.188 | 1.2 | -0.0685 | 0.944 | 0.0129 | 0.0483 | 0.0178 |
| CGCGGTG | -0.0496 | -0.0134 | -0.281 | -0.0731 | -0.101 | -0.0959 | 0.112 | -0.00464 | -0.0625 |
| TTAGTAT | 0.035 | -0.014 | 0.274 | -0.238 | 0.0753 | 0.419 | 0.0793 | 0.0859 | 0.0431 |
| CCGATGT | 0.0246 | 0.0265 | 0.0571 | -0.0566 | -0.0475 | -0.339 | -0.0645 | 0.0967 | -0.133 |
| TGCTATT | -3.22 | -1.63 | -1.1 | -2.5 | -0.243 | -0.579 | -3.32 | 0.144 | -1.08 |
